Source: patent US20230405002A1, “COMBINATIONS OF DIACYLGLYCEROL ACYLTRANSFERASE 2 INHIBITORS AND ACETYL-COA CARBOXYLASE INHIBITOR” (Pfizer Inc., priority 2020, published 2023)
Read-outs that look alike come from different tables or passages of the source.

Legend:
[1] = system: adults with non-alcoholic fatty liver disease (NAFLD); assay: Phase 2A study: liver function tests (ALT, AST, alkaline phosphatase, GGT); format: in vivo, human; details: for ALT % Change from Baseline, LS Mean / ALT % Change from Placebo, LS Mean / AST % Change from Baseline, LS Mean / AST % Change from Placebo, LS Mean / Alkaline Phosphatase % Change from Baseline, LS Mean / Alkaline Phosphatase % Change from Placebo, LS Mean / GGT % Change from Baseline, LS Mean / GGT % Change from Placebo, LS Mean: FAS, Cmpd A 15 mg, Cmpd D 300 mg; for GGT change from baseline / alkaline phosphatase change: over the 6-week study
From the text: The LS Mean (and 90% CIs) percent change from placebo on Day 42 are given. Table 25 provides a statistical analysis of percent change from baseline in liver function tests on Day 42-FAS. FIGS. 25a-25d provide plots of least square means and 90% CIs for percent change from baseline in liver function tests—FAS. FIG. 25a provides the plot for alanine aminotransferase (ALT); FIG. 25b provides the plot for aspartate aminotransferase (AST); FIG. 25c provides the plot for alkaline phosphotate; and FIG. 25d provides the plot for gamma glutamyl transferase (GGT).

[2] = system: adults with non-alcoholic fatty liver disease (NAFLD); details: for Serum triglycerides % Change from Baseline, LS Mean / Serum triglycerides % Change from Placebo, LS Mean: NAFLD adults, FAS, MMRM, Cmpd A 15 mg, Cmpd D 300 mg; for Serum triglycerides % Change of Combination vs Each Monotherapy, LS Mean: combination Cmpd A 15 mg + Cmpd D 300 mg relative to the monotherapy named as label
[3] = system: adults with non-alcoholic fatty liver disease (NAFLD); assay: Phase 2A study: safety and tolerability, treatment emergent adverse events; format: in vivo, human; details: for discontinuation from study drug due to AEs: one subject per arm; for Number of adverse events / Subjects discontinued from study due to adverse events (a) / Subjects discontinued study drug due to AE and continue Study (b) / Subjects with adverse events / Subjects with dose reduced or temporary discontinuation due to adverse events / Subjects with serious adverse events / Subjects with severe adverse events: treatment emergent AEs, all causalities, safety analysis set, Cmpd A 15 mg, Cmpd D 300 mg
[4] = system: adults with non-alcoholic fatty liver disease (NAFLD); assay: Phase 2A study: platelets; format: in vivo, human; details: Day 42; for Platelets LSMean (90% CI), placebo-adjusted % change from baseline: Cmpd A 15 mg Q12H, Cmpd D 300 mg Q12H; for Platelets % Change from Baseline, LS Mean / Platelets % Change from Placebo, LS Mean: FAS, Cmpd A 15 mg, Cmpd D 300 mg
From the text: Table 27 provides a statistical analysis of percent change from baseline in platelets on Day 42—FAS.

[5] = system: adults with non-alcoholic fatty liver disease (NAFLD); assay: Phase 2A study: whole liver fat by MRI-PDFF; format: in vivo, human; details: Day 42
[6] = system: adults with non-alcoholic fatty liver disease (NAFLD); assay: Phase 2A study: other lipids and apolipoproteins; format: in vivo, human; details: Day 42; for HDL-Cholesterol % Change from Baseline, LS Mean / HDL-Cholesterol % Change from Placebo, LS Mean / LDL-Cholesterol % Change from Baseline, LS Mean / LDL-Cholesterol % Change from Placebo, LS Mean / Non-HDL Cholesterol % Change from Baseline, LS Mean / Non-HDL Cholesterol % Change from Placebo, LS Mean / Total Cholesterol % Change from Baseline, LS Mean / Total Cholesterol % Change from Placebo, LS Mean: fasting serum, FAS, Cmpd A 15 mg, Cmpd D 300 mg
From the text: A summary of the statistical analysis of percent change from baseline in other fasting serum lipid parameters on day 42—FAS is provided in Table 23.
The LS Mean (and 90% Cls) percent change from placebo on Day 42 are given.

[7] = NAFLD patients, ACCi 15 mg BID, DGAT2i 300 mg BID
[8] = Day 42, combination Cmpd A 15 mg + Cmpd D 300 mg relative to the monotherapy named as label
[9] = combination Cmpd A 15 mg + Cmpd D 300 mg relative to the monotherapy named as label
[10] = combination (Cmpd A + Cmpd D) versus the monotherapy named in the row

CCOc1cccnc1Oc1cncc(-c2ncc(C(=O)N[C@H]3CCOC3)cn2)c1 [Compound D, (S)-2-(5-((3-ethoxypyridin-2-yl)oxy)pyridin-3-yl)-N-(tetrahydrofuran-3-yl)pyrimidine-5-carboxamide]
ALT % Change from Baseline, LS Mean ([1]; Day 42): −4.15%
ALT % Change from Placebo, LS Mean ([1]; Day 42): −1.18%
AST % Change from Baseline, LS Mean ([1]; Day 42): 2.21%
AST % Change from Placebo, LS Mean ([1]; Day 42): −2.77%
Alkaline Phosphatase % Change from Baseline, LS Mean ([1]; Day 42): −7.51%
Alkaline Phosphatase % Change from Placebo, LS Mean ([1]; Day 42): −10.15%
GGT % Change from Baseline, LS Mean ([1]; Day 42): −6.31%
GGT % Change from Placebo, LS Mean ([1]; Day 42): −6.32%
GGT change from baseline [1]: no significant change from baseline
alkaline phosphatase change [1]: clear and statistically significant decrease
Triglycerides LSMean (90% CI), placebo-adjusted % change from baseline ([2]; Day 42, Cmpd A 15 mg Q12H, Cmpd D 300 mg Q12H): −8.63 (−24.37, 10.38) %
subjects exceeding triglyceride threshold >400 mg/dl, total number (%) [2, 7]: 2 (7.4) n (%)
subjects exceeding triglyceride threshold >600 mg/dl, total number (%) [2, 7]: 1 (3.7) n (%)
subjects exceeding triglyceride threshold >800 mg/dl, total number (%) [2, 7]: 0 n (%)
Serum triglycerides % Change from Baseline, LS Mean ([2]; Study Day 5): −4.59%
Serum triglycerides % Change from Placebo, LS Mean ([2]; Study Day 5): −13.26%
Serum triglycerides % Change from Baseline, LS Mean ([2]; Study Day 14): −17.53%
Serum triglycerides % Change from Placebo, LS Mean ([2]; Study Day 14): −17.87%
Serum triglycerides % Change from Baseline, LS Mean ([2]; Study Day 28): −7.35%
Serum triglycerides % Change from Placebo, LS Mean ([2]; Study Day 28): −19.25%
Serum triglycerides % Change from Baseline, LS Mean ([2]; Study Day 42): −1.89%
Serum triglycerides % Change from Placebo, LS Mean ([2]; Study Day 42): −8.63%
triglycerides on day 42, key finding ([2]; in words): modest decrease in triglycerides
discontinuation from study drug due to AEs [3]: discontinued from study drug due to mild AE of creatine kinase and AST elevations
Number of adverse events [3]: 22
Subjects discontinued from study due to adverse events (a) [3]: 1 (3.6) n (%)
Subjects discontinued study drug due to AE and continue Study (b) [3]: 1 (3.6) n (%)
Subjects with adverse events [3]: 10 (35.7) n (%)
Subjects with dose reduced or temporary discontinuation due to adverse events [3]: 0 n (%)
Subjects with serious adverse events [3]: 0 n (%)
Subjects with severe adverse events [3]: 0 n (%)
Platelets LSMean (90% CI), placebo-adjusted % change from baseline [4]: 7.50 (−0.99, 16.71) %
Platelets % Change from Baseline, LS Mean [4]: 4.92%
Platelets % Change from Placebo, LS Mean [4]: 7.50%
Whole liver fat % Change from Baseline, LS Mean ([5]; ANCOVA, Table 21): −30.14%
Whole liver fat % Change from Placebo, LS Mean ([5]; ANCOVA, Table 21): −35.40%
Liver Fat PDFF LSMean (90% CI), placebo-adjusted % change from baseline ([5]; Cmpd A 15 mg Q12H, Cmpd D 300 mg Q12H): −35.40 (−47.40, −20.68) %
ApoC3 % Change from Baseline, LS Mean [6]: −6.52%
ApoC3 % Change from Placebo, LS Mean [6]: −8.19%
LDL-cholesterol versus placebo [6]: numerical lowering trends
HDL-Cholesterol % Change from Baseline, LS Mean [6]: −13.43%
HDL-Cholesterol % Change from Placebo, LS Mean [6]: −10.58%
LDL-Cholesterol % Change from Baseline, LS Mean [6]: −5.22%
LDL-Cholesterol % Change from Placebo, LS Mean [6]: −7.12%
Non-HDL Cholesterol % Change from Baseline, LS Mean [6]: −3.51%
Non-HDL Cholesterol % Change from Placebo, LS Mean [6]: −5.56%
Total Cholesterol % Change from Baseline, LS Mean [6]: −5.87%
Total Cholesterol % Change from Placebo, LS Mean [6]: −7.70%

COc1cc(C(=O)N2CCC3(CC2)CC(=O)c2c(cnn2C(C)C)C3)cc(-c2ccc(C(=O)O)cc2)n1 [Compound A, 4-(4-(1-isopropyl-7-oxo-1,4,6,7-tetrahydrospiro[indazole-5,4′-piperidine]-1′-carbonyl)-6-methoxypyridin-2-yl)benzoic acid]
ALT % Change from Baseline, LS Mean ([1]; Day 42): −12.41%
ALT % Change from Placebo, LS Mean ([1]; Day 42): −9.70%
AST % Change from Baseline, LS Mean ([1]; Day 42): −0.03%
AST % Change from Placebo, LS Mean ([1]; Day 42): −4.91%
Alkaline Phosphatase % Change from Baseline, LS Mean ([1]; Day 42): 11.20%
Alkaline Phosphatase % Change from Placebo, LS Mean ([1]; Day 42): 8.03%
GGT % Change from Baseline, LS Mean ([1]; Day 42): 22.63%
GGT % Change from Placebo, LS Mean ([1]; Day 42): 22.62%
ALT % Change of Combination vs Each Monotherapy, LS Mean [1, 8]: 5.15%
AST % Change of Combination vs Each Monotherapy, LS Mean [1, 8]: −3.84%
Alkaline Phosphatase % Change of Combination vs Each Monotherapy, LS Mean [1, 8]: −10.74%
GGT % Change of Combination vs Each Monotherapy, LS Mean [1, 8]: −10.16%
GGT change from baseline [1]: an increase observed
alkaline phosphatase change [1]: clear and statistically significant elevation
Serum triglycerides % Change of Combination vs Each Monotherapy, LS Mean ([2]; Study Day 5): −9.53%
Serum triglycerides % Change of Combination vs Each Monotherapy, LS Mean ([2]; Study Day 14): −12.58%
Serum triglycerides % Change of Combination vs Each Monotherapy, LS Mean ([2]; Study Day 28): −25.99%
Serum triglycerides % Change of Combination vs Each Monotherapy, LS Mean ([2]; Study Day 42): −28.03%
discontinuation from study drug due to AEs [3]: discontinued due to severe AE of TG elevation
Number of adverse events [3]: 17
Subjects discontinued from study due to adverse events (a) [3]: 1 (3.4) n (%)
Subjects discontinued study drug due to AE and continue Study (b) [3]: 0 n (%)
Subjects with adverse events [3]: 10 (34.5) n (%)
Subjects with dose reduced or temporary discontinuation due to adverse events [3]: 1 (3.4) n (%)
Subjects with serious adverse events [3]: 0 n (%)
Subjects with severe adverse events [3]: 1 (3.4) n (%)
Platelets LSMean (90% CI), placebo-adjusted % change from baseline [4]: −7.12 (−14.51, 0.91) %
Platelets % Change from Baseline, LS Mean [4]: −9.35%
Platelets % Change from Placebo, LS Mean [4]: −7.12%
Platelets % Change of Combination vs Each Monotherapy, LS Mean [4, 9]: 9.00%
Whole liver fat % Change of Combination vs Each Monotherapy, LS Mean [5, 10]: −0.21%
ApoC3 % Change from Baseline, LS Mean [6]: 45.31%
ApoC3 % Change from Placebo, LS Mean [6]: 42.71%
LDL-cholesterol versus placebo [6]: statistically significantly decreased
ApoC3 % Change of Combination vs Each Monotherapy, LS Mean [6, 10]: −24.66%
HDL-Cholesterol % Change of Combination vs Each Monotherapy, LS Mean [6, 9]: −3.14%
LDL-Cholesterol % Change of Combination vs Each Monotherapy, LS Mean [6, 9]: 12.81%
Non-HDL Cholesterol % Change of Combination vs Each Monotherapy, LS Mean [6, 9]: −5.94%
Total Cholesterol % Change of Combination vs Each Monotherapy, LS Mean [6, 9]: −5.22%
HDL-Cholesterol % Change from Baseline, LS Mean [6]: −15.56%
HDL-Cholesterol % Change from Placebo, LS Mean [6]: −12.77%
LDL-Cholesterol % Change from Baseline, LS Mean [6]: −19.74%
LDL-Cholesterol % Change from Placebo, LS Mean [6]: −21.35%
Non-HDL Cholesterol % Change from Baseline, LS Mean [6]: 1.86%
Non-HDL Cholesterol % Change from Placebo, LS Mean [6]: −0.30%
Total Cholesterol % Change from Baseline, LS Mean [6]: −2.72%
Total Cholesterol % Change from Placebo, LS Mean [6]: −4.61%
